Measured values as given in the antibiotic and cytotoxicity screens of Wong et al. (2023).
The other results are listed elsewhere or left out.

Legend:
HSkMC = human skeletal muscle cells; experiment: cytotoxicity call (relative viability < 0.9); settings: 10 µM
HepG2 = experiment: cytotoxicity call (relative viability < 0.9); settings: 10 µM
S. aureus RN4220 = experiment: growth inhibition call (relative growth <= 0.2); settings: 50 µM

Row | SMILES | cytotoxicity call (HSkMC) | cytotoxicity call (HepG2) | growth inhibition call (S. aureus RN4220)
1 | C[C@H](CO)N1C[C@H](C)[C@@H](CN(C)Cc2ccc(C(=O)O)cc2)Oc2ncc(Br)cc2C1=O | inactive | inactive | inactive
2 | C[C@H](CO)N1C[C@H](C)[C@H](CN(C)C(=O)Nc2ccc3c(c2)OCO3)OCCCC[C@H](C)Oc2ccc(NC(=O)c3ccncc3)cc2C1=O | inactive | inactive | inactive
3 | C=CCC[C@H](Cc1ccc(F)cc1)C(=O)OC[C@H](Cc1c[nH]c2ccccc12)NC(=O)[C@@H](CC=C)CC(=O)N[C@@H](CO)Cc1ccccc1 | active | active | inactive
4 | C[C@H](CO)N1C[C@H](C)[C@H](CN(C)S(C)(=O)=O)OCc2ccccc2-c2c(n(C)c3ccccc23)C1=O | inactive | inactive | inactive
5 | C[C@H](CO)N1C[C@H](C)[C@H](CN(C)Cc2ccc3c(c2)OCO3)Oc2ccc(NC(=O)c3ccncc3)cc2C1=O | inactive | inactive | inactive
6 | C[C@@H]1CCCCO[C@@H](CN(C)Cc2ccccc2)[C@@H](C)CN([C@@H](C)CO)C(=O)c2cc(NC(=O)Nc3ccc4c(c3)OCO4)ccc2O1 | inactive | inactive | inactive
7 | COc1ccc(C#Cc2cnc3c(c2)C(=O)N([C@H](C)CO)C[C@@H](C)[C@@H](CN(C)CC2CCOCC2)O3)cc1 | inactive | inactive | inactive
8 | O=C1OCC=C[C@H]2O[C@@]34C=CCN(c5ccc(Cl)cc5)C(=O)[C@H]3N(CCCCCCO)C(=O)[C@@H]4[C@@H]12 | inactive | inactive | inactive
9 | COC(=O)C(=C1OC(=O)C(c2ccccc2)=C1O)c1ccccc1 | inactive | inactive | inactive
10 | C[C@@H]1CCCCO[C@@H](CN(C)Cc2ccc(Cl)c(Cl)c2)[C@@H](C)CN([C@@H](C)CO)C(=O)c2cc(NC(=O)Cc3ccccc3)ccc2O1 | inactive | inactive | inactive
11 | CC(=O)N1C[C@@H]2CN(c3ncccn3)CC[C@H]2C1 | inactive | inactive | inactive
12 | COc1ccc(-c2ccc3c(c2)O[C@@H](CN(C)CC2CCOCC2)[C@H](C)CN([C@H](C)CO)S3(=O)=O)cc1 | inactive | inactive | inactive
13 | C[C@H]1CN([C@@H](C)CO)C(=O)c2c(c3ccccc3n2C)-c2ccccc2CO[C@H]1CN(C)Cc1ccccc1C(F)(F)F | inactive | inactive | inactive
14 | C[C@H]1CN([C@@H](C)CO)C(=O)c2cccc(NC(=O)c3nc4ccccc4s3)c2O[C@@H]1CN(C)S(=O)(=O)c1cn(C)cn1 | inactive | inactive | inactive
15 | COc1cccc(S(=O)(=O)N(C)C[C@@H]2Oc3ncc(-c4ccccc4)cc3C(=O)N([C@H](C)CO)C[C@@H]2C)c1 | inactive | inactive | inactive
16 | COCC(=O)N(C)C[C@@H]1Oc2cc(C#C[C@@H](C)O)ccc2S(=O)(=O)N([C@@H](C)CO)C[C@@H]1C | inactive | inactive | inactive
17 | C[C@@H]1CCCCO[C@@H](CN(C)C(=O)C2CCCCC2)[C@H](C)CN([C@@H](C)CO)C(=O)c2cc(NC(=O)Nc3ccccc3)ccc2O1 | inactive | inactive | inactive
18 | CC1(C)CC[C@]2(C(=O)O[C@H]3O[C@@H](CO)[C@@H](O)[C@@H](O)[C@@H]3O)CC[C@]3(C)C(=CC[C@H]4[C@@]5(C)C[C@@H](O)[C@H](O[C@H]6O[C@H](C(=O)O)[C@@H](O)[C@@H](O)[C@@H]6O)C(C)(C)[C@@H]5CC[C@]43C)[C@@H]2C1 | inactive | inactive | inactive
19 | C[C@@H]1CCCCO[C@@H](CN(C)C(=O)Nc2cccc3ccccc23)[C@H](C)CN([C@@H](C)CO)C(=O)c2cc(NC(=O)Nc3ccc(F)cc3)ccc2O1 | inactive | inactive | inactive
20 | COc1ccc(NC(=O)N(C)C[C@H]2Oc3ccc(NC(=O)Nc4ccc(C(F)(F)F)cc4)cc3C(=O)N([C@@H](C)CO)C[C@H]2C)cc1 | inactive | inactive | inactive
21 | C[C@H](CO)N1C[C@H](C)[C@@H](CN(C)S(=O)(=O)c2ccc(F)cc2)OCCCC[C@H](C)Oc2ccc(NC(=O)Nc3cccc4ccccc34)cc2C1=O | inactive | inactive | inactive
22 | NCCC1=CSC2=NCCN12 | inactive | inactive | inactive
23 | Cn1c(=O)n2n(c1=O)[C@H](C1CC1)C=C1CN3[C@@H]([C@H](CCn4cc(-c5cccc(/C=C/C(=O)NO)c5)nn4)OC(=O)[C@@H]3Cc3ccccc3)[C@@H]12 | inactive | inactive | inactive
24 | C[C@@H]1CN([C@H](C)CO)S(=O)(=O)c2ccc(Br)cc2O[C@@H]1CN(C)C(=O)C1CCCCC1 | inactive | inactive | inactive
25 | C[C@H]1CN([C@@H](C)CO)C(=O)c2cccc(NC(=O)Nc3ccc(C(F)(F)F)cc3)c2O[C@H]1CN(C)S(=O)(=O)c1ccc(Cl)cc1 | active | active | inactive
26 | CC1CCC(NC(=O)N(CCCl)[NH2+][O-])CC1 (centres undefined) | inactive | inactive | inactive
27 | C[C@H]1CN([C@@H](C)CO)C(=O)Cc2cc(NC(=O)Cc3cn(C)c4ccccc34)ccc2O[C@H]1CN(C)Cc1ccc(C(=O)Nc2ccccc2N)cc1 | inactive | inactive | inactive

Row | SMILES | cytotoxicity call (HSkMC) | cytotoxicity call (HepG2) | growth inhibition call (S. aureus RN4220)
28 | COc1ccc(NC(=O)Nc2ccc3c(c2)C(=O)N([C@@H](C)CO)C[C@@H](C)[C@H](CN(C)Cc2ccc(-c4ccccc4)cc2)O3)cc1 | inactive | active | inactive
29 | C[C@H](CO)N1C[C@H](C)[C@H](CN(C)S(=O)(=O)c2ccccc2)Oc2ncc(C#Cc3ccccc3F)cc2C1=O | inactive | inactive | inactive
30 | C[C@@H]1CN([C@@H](C)CO)C(=O)c2cc(C#Cc3ccccc3F)cnc2O[C@@H]1CN(C)C(=O)Cc1ccncc1 | inactive | inactive | inactive
31 | CCCNC(=O)N[C@@H]1CC[C@H](CC(=O)N2CCN(C)CC2)O[C@H]1CO | inactive | inactive | inactive
32 | COc1ccc2c3c([nH]c2c1)[C@@H](CO)N(C[C@]13CCN(CC1)CC1CCCC1)S(=O)(=O)c1cn(cn1)C | inactive | inactive | inactive
33 | COc1c(Cl)c(C)c(C(=O)Oc2cc(C)c(C(=O)O)c(O)c2)c(O)c1Cl | inactive | inactive | inactive
34 | O=C(O)c1ccccc1C(=O)Nc1ccc(S(=O)(=O)Nc2nccs2)cc1 | inactive | inactive | inactive
35 | C[C@@H]1CN([C@@H](C)CO)C(=O)c2cccc(NS(=O)(=O)c3ccc(Cl)cc3)c2O[C@H]1CN(C)C(=O)Nc1ccc(C(F)(F)F)cc1 | inactive | inactive | inactive
36 | Cc1ccccc1NC(=N)N=C(N)N | inactive | active | inactive
37 | C[C@H](CO)N1C[C@H](C)[C@H](CN(C)C(=O)Nc2ccc(F)cc2)Oc2ncc(-c3cc4ccccc4o3)cc2C1=O | inactive | inactive | inactive
38 | C[C@@H]1CN([C@@H](C)CO)C(=O)Cc2cc(NC(=O)Nc3ccc(F)cc3)ccc2O[C@H]1CN(C)Cc1ccc(C(F)(F)F)cc1 | inactive | active | inactive
39 | O=C(C[C@@H]1C=C[C@H](NC(=O)CN2CCOCC2)[C@@H](CO)O1)NC1CCC1 | inactive | inactive | inactive
40 | C[C@@H]1CN([C@@H](C)CO)S(=O)(=O)c2ccc(C3=CCCC3)cc2O[C@@H]1CN(C)C(=O)Cc1ccncc1 | inactive | inactive | inactive
41 | O=C(C[C@H]1C=C[C@@H](NC(=O)Nc2cc(F)ccc2F)[C@H](CO)O1)NCCCN1CCOCC1 | inactive | inactive | inactive
42 | CC(C)NC(=O)N(C)C[C@H]1Oc2ccc(NS(=O)(=O)c3cn(C)cn3)cc2CC(=O)N([C@@H](C)CO)C[C@H]1C | inactive | inactive | inactive
43 | [N-]=[N+]=Nc1ccccc1C[C@]1(C(=O)N2CCCCC2)N=C(c2ccc(OCCCO)cc2)O[C@H]1c1ccccc1 | inactive | active | inactive
44 | CC[C@H]1OC(=O)C[C@@H](O)[C@H](C)[C@@H](O[C@@H]2O[C@H](C)[C@@H](O[C@H]3C[C@@](C)(O)[C@@H](O)[C@H](C)O3)[C@H](N(C)C)[C@H]2O)[C@@H](CC=O)C[C@@H](C)C(=O)/C=C/C(C)=C/[C@@H]1CO[C@@H]1O[C@H](C)[C@@H](O)[C@@H](OC)[C@H]1OC | inactive | inactive | active
45 | C[C@@H]1CCCCO[C@H](CN(C)Cc2ccncc2)[C@H](C)CN([C@@H](C)CO)C(=O)c2cc(NC(=O)Nc3ccccc3)ccc2O1 | inactive | inactive | inactive
46 | Cn1cnc(S(=O)(=O)N[C@@H]2C=C[C@H](CC(=O)N3CCN(c4ccccc4)CC3)O[C@H]2CO)c1 | inactive | inactive | inactive
47 | CCN(CC)CCOC(=O)C1(C2CCCCC2)CCCCC1.Cl | inactive | inactive | inactive
48 | O=C(C[C@@H]1CC[C@H](NC(=O)CN2CCOCC2)[C@H](CO)O1)NC1CCC1 | inactive | inactive | inactive
49 | Cc1ccc(S(=O)(=O)Nc2ccc3c(c2)CC(=O)N([C@H](C)CO)C[C@@H](C)[C@@H](CN(C)C(=O)NC(C)C)O3)cc1 | inactive | inactive | inactive
50 | C[C@@H]1CCCCO[C@H](CN(C)S(C)(=O)=O)[C@@H](C)CN([C@@H](C)CO)C(=O)c2cc(NS(=O)(=O)c3ccccc3)ccc2O1 | inactive | inactive | inactive
51 | Cc1noc(C)c1NC(=O)Nc1ccc2c(c1)C(=O)N([C@H](C)CO)C[C@H](C)[C@@H](CN(C)C(=O)Nc1ccc(F)cc1)OCCCC[C@@H](C)O2 | inactive | inactive | inactive
52 | COc1ccc(OC)c(S(=O)(=O)NC(=O)[C@@]2(C)CCN2C(=O)Cc2ccc(Cl)cc2Cl)c1 | inactive | inactive | inactive
53 | Cc1ccc(S(=O)(=O)Nc2ccc3c(c2)C(=O)N([C@@H](C)CO)C[C@@H](C)[C@@H](CN(C)Cc2ccc4c(c2)OCO4)OCCCC[C@@H](C)O3)cc1 | inactive | inactive | inactive
